Measured values as given in PubChem BioAssay AID1745853 (National Center for Advancing Translational Sciences (NCATS), 2022).
Some of the results follow. Further columns of the screen follow, without active or inactive calls.

Tests used:
Assay in all cases: Primary Screen for Target Class Profiling of Small Molecule Inhibitors of Methyltransferases
[1] = biological target: Glycine N-methyltransferase (Homo sapiens) (UniProt Q14749); details: purified enzyme, MTase-Glo SAH luminescence; measured here: GNMT inhibition; at 40 µM; stronger effect = lower value
Summary of the method: (§1)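 Each enzyme was assayed with SAM and its substrate. SAH formation detected by MTase-Glo luminescence; single-point 40 uM screen[…].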

[2] = biological target: Guanidinoacetate N-methyltransferase (Homo sapiens) (UniProt Q14353); details: purified enzyme, MTase-Glo SAH luminescence; measured here: GAMT inhibition; at 40 µM; stronger effect = lower value
Summary of the method: as §1

[3] = biological target: Histamine N-methyltransferase (Homo sapiens) (UniProt P50135); details: purified enzyme, MTase-Glo SAH luminescence; measured here: HNMT inhibition; at 40 µM; stronger effect = lower value
Summary of the method: as §1

[4] = biological target: Nicotinamide N-methyltransferase (Homo sapiens) (UniProt P40261); details: purified enzyme, MTase-Glo SAH luminescence; measured here: NNMT inhibition; at 40 µM; stronger effect = lower value
Summary of the method: as §1

[5] = biological target: Phenylethanolamine N-methyltransferase (Homo sapiens) (UniProt P11086); details: purified enzyme, MTase-Glo SAH luminescence; measured here: PNMT inhibition; at 40 µM; stronger effect = lower value
Summary of the method: as §1
% is set by controls: 0 for no effect and ±100 for the full control effect.

Compound | activity change, negative = inhibition [1] [%] | activity change, negative = inhibition [2] [%] | activity change, negative = inhibition [3] [%] | activity change, negative = inhibition [4] [%] | activity change, negative = inhibition [5] [%]
CC(=O)N1CC2(CCCN(C3CCCCC3)C2)Cc2ccccc21 (stereo not given) | -0.915 | -1.54 | -6.95 | -3.92 | -1.43
COc1cccc(Cn2nc3n(CC(C)C)c(=O)c4ccc(C(=O)NC5CCCC5)cc4n3c2=O)c1 | 4.5 | 2.1 | 7.19 | 7.22 | 3.81
CC1=CC(=O)CC(C)(CO[C@@H]2O[C@H](CO)[C@@H](O)[C@H](O)[C@H]2O)C1(O)/C=C/C(C)=C/C(=O)O (stereo not given in full) | 3.19 | 6.48 | 10.4 | -22.2 | 8.98
COCc1nc(-c2ccc(OC3CN(C(=O)NCc4ccc(OC)cc4)C3)cc2)no1 | -2.23 | -1.72 | -0.929 | -1.68 | -5.33
CC(C)(C)c1ccc(C(=O)NC(Cc2c[nH]c3ccccc23)C(=O)OCC(=O)c2ccccc2)cc1 (stereo not given) | 6.86 | 0 | 1.49 | 1.23 | 0.54
CC(=O)C1CCC2(C)C3=C(CCC12C)C1(C)CCC(=O)C(C)(C)C1CC3 (stereo not given) | 1.99 | 1.66 | 14.8 | -15 | 5.23
CC1(c2noc(C3CC3)n2)CCN(C(=O)CCCc2nc3ccccc3s2)CC1 | -5.78 | -4.61 | -2.47 | -12.2 | -6.97
CNC(=O)N1CCCC(n2c(C)cnc2-c2ccncc2)C1 (stereo not given) | -2.5 | -6.37 | 1.03 | -2.02 | -1.8
Cc1ccccc1Cc1c(C)nc2c(C(=O)N3CCC(Cc4nncn4CC4CC4)CC3)cnn2c1C | -4.7 | 1.52 | -4.23 | -22.4 | -5.49
CCN(CCCNC(=O)CCCc1nnc2n3nc(C)nc3c3ccccc3n12)c1ccccc1 | -14.6 | 0.973 | 0.152 | 15.8 | 3.79
C/C(=C\CCC(C)CCO)C(=O)OC1(C)CCC2C(C(=O)O)=COC(OC3OC(CO)C(O)C(O)C3O)C21 (stereo not given) | 1.14 | 3.3 | 9.72 | -9.37 | -5.12
COc1cccc(CNC(=O)NC2CCc3n[nH]c(=O)n3CC2)c1 (stereo not given) | -1.86 | -1.09 | -1.46 | -2.78 | -4.02
CC(C)CCNC(=O)C1(C)Cn2nc(C(=O)NCCC3=CCCCC3)cc2C(=O)N1C (stereo not given) | -2.25 | 2.59 | 3 | -1.86 | -1.12
CN1C(=O)c2cc(C(=O)NCCCc3ccccc3)nn2CC1(C)C(=O)NCc1ccc(F)cc1 (stereo not given) | 3.48 | 0 | 1.6 | 1.77 | 1.56
CC1(C(=O)NC2CCCC2)Cn2c(c(-n3cccc3)c3ccccc32)C(=O)N1Cc1ccccc1 (stereo not given) | 8.56 | 1.54 | 5.87 | 8.42 | 5.1
CC1(C(=O)NC2CCCCCCC2)Cn2c(ccc2-c2ccco2)C(=O)N1Cc1ccccc1 (stereo not given) | -6.56 | 4.12 | -3.56 | -12.7 | -5.92
O=c1cc(NCCCN[C@@H]2CCOc3c(Br)cc(Br)cc32)[nH]c2ccsc12 | -5.47 | -15.9 | 0.137 | -48.8 | -24.1
O=C(N[C@H](c1cccs1)C1CC(O)C1)c1cnn2cc(CCO)cnc12 (stereo not given in full) | -3.07 | -5.71 | -4.37 | -5.61 | -0.134
Cc1cc2c(cc3n2CC(C)(C(=O)NC2CCCCCC2)N(Cc2ccc(Cl)cc2)C3=O)o1 (stereo not given) | 0.292 | 3.68 | 2.44 | 2.41 | 3.05
